The BET-seq Pho4 binding data (Le et al. 2018)
This is one part of the list. Values were computed here from the reads of four pooled replicates and scatter widely.

The sequences below were run against T1, Pho4 (S. cerevisiae) (UniProt P07270) (assay: relative binding free energy (BET-seq); higher = weaker binding). Conditions: reference: library average.
T1 sequence: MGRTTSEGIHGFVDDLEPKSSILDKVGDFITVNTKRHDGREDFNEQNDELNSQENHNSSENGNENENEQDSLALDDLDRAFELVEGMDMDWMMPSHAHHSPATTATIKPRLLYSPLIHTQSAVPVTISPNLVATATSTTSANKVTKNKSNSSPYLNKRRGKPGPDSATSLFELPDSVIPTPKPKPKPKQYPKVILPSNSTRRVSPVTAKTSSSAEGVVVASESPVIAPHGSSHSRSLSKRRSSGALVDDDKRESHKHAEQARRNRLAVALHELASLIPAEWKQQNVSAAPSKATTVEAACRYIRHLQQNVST

Row | Sequence | relative binding free energy
1 | CATTACACGTGGTGAT | 0.03 kcal/mol
2 | AGCTTCACGTGGTTAG | 0.25 kcal/mol
3 | TGGGCCACGTGTAGGA | 0.05 kcal/mol
4 | TCATGCACGTGATTGA | 0.2 kcal/mol
5 | TTAGCCACGTGTATGG | -0.09 kcal/mol
6 | ATGGACACGTGATCTT | 0.18 kcal/mol
7 | GGAGTCACGTGAATGA | 0.32 kcal/mol
8 | AGAGCCACGTGAGGAT | 0.33 kcal/mol
9 | GGATTCACGTGATGGG | 0.32 kcal/mol
10 | AGAGGCACGTGAGCGT | -0.08 kcal/mol
11 | AGTGGCACGTGAGGGC | 0.1 kcal/mol
12 | TCGTTCACGTGTTTAG | 0.16 kcal/mol
13 | AGATTCACGTGTGTGG | 0.26 kcal/mol
14 | GGGGGCACGTGAGCAG | 0.13 kcal/mol
15 | ATTTCCACGTGTGTGG | 0.08 kcal/mol
16 | CGGAGCACGTGTTATG | -0.18 kcal/mol
17 | GGGCTCACGTGCTGTG | 0.2 kcal/mol
18 | TTTTCCACGTGTCAGG | 0.17 kcal/mol
19 | ACGTTCACGTGCGGGT | 0.31 kcal/mol
20 | CAGGGCACGTGCATGT | -0.17 kcal/mol
21 | ATCTTCACGTGTGGTT | 0.21 kcal/mol
22 | TATTGCACGTGGAGAA | -0.06 kcal/mol
23 | GTGCTCACGTGGATAG | 0.13 kcal/mol
24 | AAGGTCACGTGTGATT | 0.25 kcal/mol
25 | ATTCGCACGTGATTGT | 0.06 kcal/mol

Row | Sequence | relative binding free energy
26 | GTGATCACGTGCGTGG | 0.05 kcal/mol
27 | GCATGCACGTGGATTT | 0.04 kcal/mol
28 | CTGGTCACGTGTATGG | 0.06 kcal/mol
29 | TCTAACACGTGTGGTC | 0.29 kcal/mol
30 | TTAGGCACGTGATAGC | -0.12 kcal/mol
31 | GGGTACACGTGAGTGT | 0.3 kcal/mol
32 | AAATTCACGTGGTCTG | 0.29 kcal/mol
33 | CTTGGCACGTGGCAGT | -0.22 kcal/mol
34 | AGGTTCACGTGCTGCG | 0.07 kcal/mol
35 | GGTAACACGTGGGATG | -0.03 kcal/mol
36 | AATATCACGTGTGACG | 0.28 kcal/mol
37 | TTTGGCACGTGTTAGC | 0.02 kcal/mol
38 | ATAAGCACGTGGGTAG | -0.14 kcal/mol
39 | GGGTTCACGTGAAATG | 0.63 kcal/mol
40 | GGATTCACGTGTTGTC | 0.4 kcal/mol
41 | TGCTTCACGTGCGTGG | 0.08 kcal/mol
42 | TGTCACACGTGAGTTG | 0.25 kcal/mol
43 | ATAGTCACGTGGGACG | -0.07 kcal/mol
44 | GGCGACACGTGGGGCT | 0.05 kcal/mol
45 | GTATTCACGTGGGGCG | 0.21 kcal/mol
46 | ATCGTCACGTGGAATA | 0.29 kcal/mol
47 | TAAGGCACGTGGGCCG | -0.28 kcal/mol
48 | GCATTCACGTGGGGAG | 0.16 kcal/mol
49 | GAAGACACGTGTGGAG | 0.15 kcal/mol
50 | TTTAGCACGTGGTGGG | -0.16 kcal/mol

Row | Sequence | relative binding free energy
51 | GTAACCACGTGGGGTT | -0.1 kcal/mol
52 | AGGTGCACGTGAGCGA | 0.12 kcal/mol
53 | TGTCACACGTGTTGAG | 0.06 kcal/mol
54 | GAAGTCACGTGACGGG | 0.22 kcal/mol
55 | TGTGACACGTGGCAAG | 0.02 kcal/mol
56 | GTGGGCACGTGTGACG | -0.11 kcal/mol
57 | TTGTCCACGTGGGTAT | -0.04 kcal/mol
58 | AGGTCCACGTGGTTGA | -0.17 kcal/mol
59 | TTAAGCACGTGAAGTT | 0.39 kcal/mol
60 | GGGTGCACGTGGTTTA | -0.05 kcal/mol
61 | TTTTTCACGTGTTTGG | 0.3 kcal/mol
62 | TGGTGCACGTGTTTTC | 0.02 kcal/mol
63 | AGTGGCACGTGTCGGT | -0.11 kcal/mol
64 | GTAATCACGTGTGGCA | 0.29 kcal/mol
65 | TGGCTCACGTGATTAT | 0.41 kcal/mol
66 | CGGTACACGTGGTCGT | -0.09 kcal/mol
67 | GTTGGCACGTGCTTCA | 0.02 kcal/mol
68 | GGGTTCACGTGTACAG | 0.27 kcal/mol
69 | TTCAGCACGTGGTTAT | -0.19 kcal/mol
70 | ATTCTCACGTGTGTGA | 0.21 kcal/mol
71 | GGGTACACGTGCGCGG | -0.14 kcal/mol
72 | CGGGGCACGTGTAGTG | -0.13 kcal/mol
73 | CGGTACACGTGTGTAG | 0.09 kcal/mol
